Laboratory results from PubChem BioAssay AID1030 (National Center for Advancing Translational Sciences (NCATS), 2008).
Several values for one entry are separate records, joined by “and”; a condition that tells them apart may be missing. Equal entries are not always repeated. The whole screen tested about 220,000 compounds, of which about 16,000 (7.3%) were called active. Inconclusive means that the source gave no clear call. Such entries were picked first, then a sample of the others. The call rests on the fitted dose curve; in most records, active means well fitted inhibition curve with a large enough effect (not every such curve was filed as active); inconclusive means small, poorly fitted or top-dose-only effect, or another doubt; inactive means no such curve, though single readings can be large or run the other way. Potencies beside an inconclusive call are fits to weak or partial responses and may not hold up.

target: Aldehyde dehydrogenase 1A1 (Homo sapiens) (UniProt P00352); assay: qHTS Assay for Inhibitors of Aldehyde Dehydrogenase 1 (ALDH1A1); details: Purified ALDH1A1, NADH fluorescence, propionaldehyde substrate; series mostly up to 75.3 µM; activity, negative = inhibition: at the top concentration;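 on activity, negative = inhibition: plate controls were no enzyme wells and a reference inhibitor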
Sequence of UniProt P00352 (P00352 whole entry, looked up): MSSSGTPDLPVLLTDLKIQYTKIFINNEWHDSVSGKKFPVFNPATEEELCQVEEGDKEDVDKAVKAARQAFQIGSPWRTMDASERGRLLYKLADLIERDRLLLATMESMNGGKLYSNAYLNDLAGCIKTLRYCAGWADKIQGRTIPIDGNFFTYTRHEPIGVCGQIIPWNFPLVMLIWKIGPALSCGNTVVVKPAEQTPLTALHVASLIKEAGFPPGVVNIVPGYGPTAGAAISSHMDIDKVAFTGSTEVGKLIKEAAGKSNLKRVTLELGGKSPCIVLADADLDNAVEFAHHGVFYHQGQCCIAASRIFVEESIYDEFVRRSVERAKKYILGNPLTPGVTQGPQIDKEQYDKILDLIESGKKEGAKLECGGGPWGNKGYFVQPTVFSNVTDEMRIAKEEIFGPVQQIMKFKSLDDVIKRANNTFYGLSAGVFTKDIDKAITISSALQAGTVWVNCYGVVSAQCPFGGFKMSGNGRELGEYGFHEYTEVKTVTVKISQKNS
Potency means the concentration at half of the fitted maximal effect; tags describe the fitted curve by direction and shape.

Potency, active:
Cc1cccc2nc(=S)n(C(=O)c3ccco3)n12 4.74 µM, CC1(C)CC(=O)C2=C(C1)N=C1SCCC(=O)N1C2c1cccc([N+](=O)[O-])c1 (stereo unspecified) 10 µM, CC(C)CCn1c(Oc2ccc(Cl)cc2)nc2c1c(=O)n(C)c(=O)n2C 7.94 µM, O=C(N/N=C\c1cc(Br)c(Br)o1)C1COc2ccccc2O1 (stereo unspecified) 17.8 µM, Cc1ccc(OCCCN2C(=O)C(=O)c3cc(C)ccc32)cc1 0.1 µM, O=S(=O)(c1cnc[nH]1)N1CCc2ccccc21 20 µM, COC(=O)NNC(=S)Nc1cc(OC)ccc1OC 25.1 µM, COc1cccc2c1C(=O)c1c(O)c3c(c(O)c1C2=O)C[C@@](O)(C(=O)CO)C[C@@H]3O[C@@H]1C[C@H](N)[C@H](O)[C@H](C)O1 20 µM, O=C(Nc1cc(Cl)cc(Cl)c1)C(NCCCO)c1ccccc1 (stereo unspecified) 1.26 µM, O=S(=O)(c1ccccc1)c1nc(-c2ccco2)oc1NCCCn1ccnc1 25.1 µM, COc1ccccc1-n1cnnc1SCC(=O)c1c[nH]c2ccccc12 10 µM, N#C/C(=C\c1ccc(C#N)cc1)C(=O)c1ccccc1 0.794 µM

Potency, inconclusive:
COc1ccc(OC)c(-n2c(O)cnc2Nc2nc(C)cc(C)n2)c1 25.1 µM [inhibitor, single point], COc1ccc(C(=O)Nc2nc(C)c(C(=O)N(C)C)s2)cc1OC 37.7 µM [inhibitor, single point], CNc1ccc(/C=C/C(=O)c2cccc3ccccc23)cc1[N+](=O)[O-] 28.2 µM [inhibitor, single point], CC[n+]1c(/C=C2\C=C(C)CC(C)C2)sc2ccccc21 (stereo unspecified) 28.2 µM [inhibitor, single point], O=C(CN1CCN(Cc2ccccc2)CC1)N/N=C/c1ccco1 39.8 µM [inhibitor, single point], Cc1[nH]nc2c1C(c1ccsc1)C1=C(CC(C)(C)CC1=O)N2 (stereo unspecified) 22.4 µM [inhibitor, partial curve], CC1(C)CC(=O)C(C=NCCN2CCN(C(=S)Nc3ccccc3)CC2)=C(O)C1 20 µM [inhibitor, single point], C/C=C/c1ccc(OCCN2C(=O)NC(C)(C)C2=O)c(OC)c1 39.8 µM [inhibitor, single point], Cc1ccc(C(C(=O)NCc2ccccc2)N(C(=O)c2csnn2)c2cccc3ccccc23)o1 (stereo unspecified) 12.6 µM [inhibitor, single point], COCCn1nnnc1C(C(C)C)N1CCCC(C)C1 (stereo unspecified) 39.8 µM [inhibitor, single point], NC(=O)C1CCN(C2=C(Cl)C(=O)c3ccccc3C2=O)CC1 10 µM [inhibitor, full curve, poor fit], Fc1ccccc1C1c2cccn2CCN1C(=S)Nc1cccc(Br)c1 (stereo unspecified) 44.7 µM [inhibitor, single point], Cc1ccc2cccc(SCC(=O)NCC#N)c2n1 31.6 µM [inhibitor, single point], c1cncc(C2Nc3ccccc3-c3nc4ccccc4n32)c1 (stereo unspecified) 14.1 µM [inhibitor, partial curve], CCOC(=O)C1C(C(=O)OC)=C(c2ccc(F)cc2)c2ccc(OC)cc2N1S(=O)(=O)C(F)(F)F (stereo unspecified) 39.8 µM [inhibitor, single point], N#Cc1nc(-c2ccco2)oc1NCCc1ccccc1 28.2 µM [inhibitor, partial curve], O=C(NCCC1=CCCCC1)NC12CC3CC(CC(C3)C1)C2 12.6 µM [inhibitor, partial curve, poor fit], CC(=O)NCc1ccc(S(=O)(=O)N/N=C/c2ccc(N(C)C)cc2)cc1 39.8 µM [inhibitor, partial curve, poor fit], CCOC(=O)c1cc2sccc2n1CC(=O)Nc1ccc2c(c1)OCCO2 25.1 µM [inhibitor, single point], Cc1cc(NCCN(C)C)n2nc(-c3cccs3)cc2n1 25.1 µM [inhibitor, single point], NC(=O)c1ccc(-c2nc(-c3ccc4c(c3)OCO4)c(-c3ccccn3)[nH]2)cc1 31.6 µM [inhibitor, single point] and 23.8 µM [inhibitor, partial curve], Cc1ccc(C(=O)Nc2nnc(-c3ccncc3)o2)cc1 5.01 µM [inhibitor, partial curve], Cn1c(=S)n(/N=C/c2ccc3c(c2)OCO3)c2ccccc21 39.8 µM [inhibitor, single point], COc1ccc(OC)c(CCNC(=O)CS(=O)(=O)Cc2nc(-c3ccc(C)cc3)oc2C)c1 39.8 µM [inhibitor, single point], COc1ccc(-c2csc(NC(=O)COC(=O)c3ccco3)n2)cc1 15.8 µM [inhibitor, partial curve], CCCCn1nc2cc(C(=O)NC3CCc4ccccc43)ccc2c1OCC (stereo unspecified) 6.31 µM [inhibitor, partial curve]

activity, negative = inhibition, inactive:
C=C(C)C(=O)c1ccc(OC)cc1 2.42%, COc1ccc(OC)c(NC(=O)CSc2nnc(C3CCCCC3)o2)c1 6.23%, O=C(Nc1ccc(Cl)c(Cl)c1)OCCNC(=O)c1ccncc1 10.4%, O=C(O)c1ccccc1C(=O)NCC(O)c1ccccc1 (stereo unspecified) -5.38%, CN1CCN(S(=O)(=O)Cc2ccc(Cl)cc2)CC1 -5.77%, Cc1ccc(NC(=S)NN(C)c2nc(C)cnc2C)cc1 -4.18%, COC(=O)C1=C(C(=O)c2ccccc2)C(c2ccc(O)c(OC)c2)n2nnnc2N1 (stereo unspecified) 8.55%, C/C(=N\NC(=O)COc1c(C)cccc1C)c1cccs1 -2.33%
